Results from ChEMBL document CHEMBL4888484, “Replenishing the malaria drug discovery pipeline: Screening and hit evaluation of the MMV Hit Generation Library 1 (HGL1) against asexual blood stage Plasmodium falciparum ,using a nano luciferase reporter read-out” (2022).
In all, about 150,000 compounds went through this assay and about 540 (0.36%) showed an effect of 50% or more. The list shows a part of the results.

system: Plasmodium falciparum; experiment: Primary screen in NF54 nanoGlo assay, in single point, at 2uM, 72h; a lower Z score goes with more inhibition; format: functional, Erythrocyte; details: timepoint 72 hour

SMILES | % Inhibition [%] | Z score
CNC(=O)c1ccc(CN(Cc2nccs2)C2CC2)o1 | -12 | 1.64
Clc1cnn(CCN2CCc3onc(-c4cccc5ccccc45)c3C2)c1 | -5 | 0.7
C1CCCCCC2(CCCCC1)OC[C@H](CN1CCOCC1)O2 | -12 | 2.31
CNC(=O)c1nc(-c2ccc(C)cc2-n2nc(C)cc2C)n[nH]1 | -9 | 1.21
CCOCCO[C@@H](C)C(=O)Nc1nsc(N2CCCC2)n1 | -6 | 0.89
Cc1onc(C(=O)N2CC(F)(F)C[C@H]2c2nncn2CC2CC2)c1CN1CCCCC1 | -7 | 0.81
CCc1ccc(C(=O)NCc2c(C)cc(C)[nH]c2=O)o1 | -4 | 0.64
Cc1nc(CN(C)C(=O)c2csc(CC(C)C)n2)no1 | -11 | 1.54
CCC1(CC)NC(=O)N(CC(=O)NCc2ccc(CN3CC(C)CC(C)C3)cc2)C1=O (stereo unspecified) | 13 | -1.71
O=C1CCCC(=O)N1Cc1cccc(Br)c1 | -6 | 1.06
CN(CC(=O)N1CCc2sccc2C1)Cc1ccc(OC(F)(F)F)cc1 | -3 | 0.57
Cn1ncnc1CCNC(=O)c1cccc(-c2ccc(CO)cc2CO)c1 | -13 | 1.72
CCc1nnc(CNc2c(F)cc(F)cc2Br)s1 | -5 | 0.57
CCCNC(=O)Cn1ccn2nc(-c3ccccc3)c(CO)c2c1=O | -5 | 0.46
Cc1cccc(OCc2ccc(C(=O)Nc3nccs3)o2)c1 | -10 | 1.56
O=C(CN1CCC[C@H](C(=O)N2CCCC2)C1)Nc1cccc(Cl)c1 | -11 | 1.46
O=C(CN1CCC[C@@](O)(CO)CC1)NCCc1ccc(F)cc1 | 3 | -0.46
Cc1ccc(N)cc1S(=O)(=O)N(CCO)C1CCC1 | 14 | -1.69
CCc1ccc(NC(=O)Cn2cccc2-c2nc(-c3ccccc3)cs2)cc1 | 0 | -0.06
O=C(Nc1cc2oc(=O)sc2cc1O)[C@@H]1CCCO1 | -10 | 1.89
CCCCc1nn(CC(=O)N2CCC[C@H](O)C2)c(=O)n1CCc1ccccc1 | 3 | -0.44
O=c1[nH]c(-c2ccc(OCC(F)F)nc2)nc2cc(F)c(F)cc12 | 5 | -1.03

SMILES | % Inhibition [%] | Z score
C[C@@H]1CN(CC(=O)NCCc2csc(N)n2)C[C@H](C)O1 | 0 | -0.05
O=C(NC1CCC1)c1cccc(S(=O)(=O)NCc2n[nH]c3c2CCC3)c1 | -12 | 1.16
Cc1nn(C(C)C)c(C)c1CN1CCn2nc(C#N)cc2C1 | 12 | -2.27
O=C(N[C@H]1CC[C@H](Oc2ccccn2)CC1)N1CCOCC1 | -5 | 0.87
CC[C@H]1C=CCN1C(=O)c1ccccc1-c1nnn[nH]1 | -18 | 1.7
Cc1oncc1C(=O)NCC1(OCCO)CCCC1 | -13 | 1.44
Cc1cccc(N(CCC(N)=O)C(=O)[C@H]2CCn3ccnc3C2)c1 | -1 | 0.21
Cc1cc(NC(=O)COc2ccc(Cl)cc2)on1 | 0 | -0.03
O=C1NCC2(CCN(C(=O)c3cccc(-c4ccc5nc[nH]c5c4)c3)CC2)O1 | -36 | 3.14
CS(=O)(=O)N[C@H]1C[C@@H]2C[C@H]1N(C(=O)c1ccc(C(F)(F)F)s1)C2 | -5 | 0.76
Cc1n[nH]c(C)c1NC(=O)NCCCN(C)c1ccccc1 | -6 | 0.81
CCN(Cc1cnc2ccccn12)C(=O)C1(c2ccccc2)CCOCC1 | -1 | 0.08
COCCCn1cnnc1CNC(=O)c1cn2c3c(cccc3c1=O)CC2 | 2 | -0.28
CC(C)(C)OC(=O)N1CC(CCO)(NC(=O)CC#N)C1 | -5 | 0.97
c1cc(CNC[C@H]2CNc3ccnn3C2)cc(Cn2ccnc2)c1 | 8 | -1.43
CC(C)Cc1cc(CN2C[C@@H](C(=O)O)CC2=O)no1 | -2 | 0.33
Cn1c(CN2CCOCC2)c(Br)c(=O)n(C)c1=O | -1 | 0.16
CNC(=O)CCCN(C)S(=O)(=O)C1CCC(C)(C)CC1 | -20 | 3.71
O=S(=O)(Cc1ccccc1F)N1CCc2nnc(C3CC3)n2CC1 | -2 | 0.36
COc1ccc(C(=O)N2CCCN(c3nc4ccccc4c4nnc(-c5ccc(C)cc5)n34)CC2)cc1 | -11 | 2.16
Cc1cc(CN(C)C(=O)C2=NN(c3ccccc3)C(=O)CC2)no1 | -14 | 2.26
